Measured values reported in article PMC5800818 (2018).

What was measured:
Test in all cases: FP
[1] = target: PTBi mutant in the adjacent Lys81-Lys82 (human, UniProt P49757 20-175)
[2] = target: PTBi-K/EE (R69E-K70E-K73E-K78E substitutions) (human, UniProt P49757 20-175, R69E | K70E | K73E | K78E)
[3] = target: PTBi-G/A (G74A-G77A substitutions) (human, UniProt P49757 20-175, G74A | G77A)
[4] = target: PTBi harboring the F162V mutation (human, UniProt P49757 20-175, F162V)

Kd [1]: 37.5 µM
Kd [2]: 224 µM
Kd [3]: 4.5 µM
Kd [4]: 4.2 µM
B1: rhodamine-labeled Mdm2^[…] (domain or fragment)
chain: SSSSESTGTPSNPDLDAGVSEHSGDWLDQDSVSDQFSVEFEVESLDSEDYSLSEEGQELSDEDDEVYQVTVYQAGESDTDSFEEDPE
modifications: rhodamine label (site not stated)
